# According to the supplement of paper PMC3334620:
# The full ranking holds about 33,000 sequences; the median of “E-score (-0.5 to 0.5)” is about -0.021, and the highest 2% start at about 0.32. The list shows a part of the results.
# Target: T1, Zap1 (UniProt P47043)
# T1 sequence: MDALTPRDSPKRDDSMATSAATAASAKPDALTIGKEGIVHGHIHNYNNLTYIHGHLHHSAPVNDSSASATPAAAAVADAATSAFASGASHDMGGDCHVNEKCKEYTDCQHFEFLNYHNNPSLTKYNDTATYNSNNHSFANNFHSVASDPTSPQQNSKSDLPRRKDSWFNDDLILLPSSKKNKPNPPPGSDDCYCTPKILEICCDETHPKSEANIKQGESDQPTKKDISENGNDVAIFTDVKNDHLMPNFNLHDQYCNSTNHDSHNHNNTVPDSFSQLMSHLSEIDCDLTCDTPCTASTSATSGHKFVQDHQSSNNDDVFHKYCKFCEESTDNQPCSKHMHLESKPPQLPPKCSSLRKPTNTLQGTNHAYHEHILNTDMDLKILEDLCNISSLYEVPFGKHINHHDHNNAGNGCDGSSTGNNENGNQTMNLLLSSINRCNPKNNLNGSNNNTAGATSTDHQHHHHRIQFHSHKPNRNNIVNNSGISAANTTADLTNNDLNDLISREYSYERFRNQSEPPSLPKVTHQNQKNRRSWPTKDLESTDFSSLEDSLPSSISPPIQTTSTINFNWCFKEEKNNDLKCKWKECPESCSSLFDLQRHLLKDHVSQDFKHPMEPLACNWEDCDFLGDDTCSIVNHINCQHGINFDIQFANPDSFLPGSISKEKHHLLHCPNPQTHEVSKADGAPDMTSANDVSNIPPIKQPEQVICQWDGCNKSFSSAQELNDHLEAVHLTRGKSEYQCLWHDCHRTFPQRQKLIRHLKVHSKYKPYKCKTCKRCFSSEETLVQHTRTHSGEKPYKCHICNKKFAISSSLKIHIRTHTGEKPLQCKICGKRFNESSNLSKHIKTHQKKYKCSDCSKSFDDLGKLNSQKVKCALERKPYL
# Assay: PBM E-score (8-mer binding enrichment) (E-score (-0.5 to 0.5)); higher = stronger / more preferred TF binding; most listed sequences are background and not binding sites
# Conditions: protein concentration: 200 nM; construct: GST-full length
# Summary of the method: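 Yeast transcription factors, full-length or as DNA-binding domains, were expressed with a GST tag using PURExpress in vitro transcription/translation. At about 100-200 nM they were applied to universal all-10-mer Agilent arrays, double-stranded by primer extension on fresh or once-stripped slides. Fluorescent anti-GST detected bound protein, and masliner normalised the scans. E-scores for ungapped eight-base words, pooled with reverse complements, came from the Universal PBM Analysis Suite.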
row,Sequence,PBM E-score
1,CATCCTCA,-0.0086
2,CAGTGATA,0.0546
3,AAAAGCTT,0.0343
4,CAGTACAA,0.0427
5,ACATGTCC,0.136
6,AATCTCAC,-0.102
7,GTACGGGA,-0.143
8,CCATTGGG,-0.0809
9,GGCAGTAC,-0.171
10,ATTTCAAG,0.102
11,GCCGGTAC,0.00379
12,AAGAGAGA,-0.113
13,GCGCATCC,-0.122
14,GTATACAA,0.0691
15,GGGGAGTA,-0.198
16,ATACTTGG,0.0112
17,AATGGGTG,0.021
18,ATCTATGG,-0.0335
19,ACGAGACA,-0.0948
20,GTGTCAAA,0.116
21,AAAGGCCG,0.0384
22,ATCAGTCG,-0.0695
23,CATTAACC,0.379
24,CCTACGTC,-0.1
25,ATGAATTA,0.112

row,Sequence,PBM E-score
1,ACTGTTCT,-0.0178
2,AAAACCAA,0.209
3,ATTCACTC,-0.105
4,CATTCCCG,0.0376
5,AGCGAAAT,-0.0288
6,GCGAAAGA,0.00173
7,GAATACAA,-0.00279
8,GACAAAAA,0.242
9,CGTTGCGC,-0.0628
10,ATTGGCTC,-0.133
11,ATCGGGGG,-0.136
12,CGAAGGTC,-0.00454
13,ACGCCCTC,-0.0897
14,AATGATCA,0.157
15,GCATTCGC,-0.355
16,CTCGTGTC,-0.0223
17,CTACTTTA,-0.034
18,AGCCAGCA,-0.202
19,TGAGTCAA,-0.112
20,AACGGTAC,0.284
21,GCCTCAGC,-0.283
22,AATTATGC,0.0451
23,CATCTATA,0.0272
24,GAGCAGTA,0.103
25,CCGCCCGG,0.0274

row,Sequence,PBM E-score
1,AGCGACCA,-0.0582
2,CTCTGAAA,-0.0676
3,ATTAAGCC,-0.137
4,CGTTAGTC,-0.143
5,ATCTCCCG,-0.265
6,ACTAGGAA,0.0291
7,GCAAATGC,-0.162
8,ATCGAATC,0.0713
9,CCGCCGAC,0.00651
10,CGGACGTA,-0.00666
11,AATTAGGT,0.222
12,ATGGCTAA,-0.133
13,ATAGCTAA,-0.0958
14,AAACGCGG,0.0751
15,GGATGTAC,0.0192
16,AAGATTCT,-0.185
17,GTTCACGA,0.0724
18,CTCTACAG,0.14
19,CAGTTCTA,-0.166
20,CGGGATGA,-0.0209
21,CAGTTTAG,-0.056
22,CAAACCTC,-0.0042
23,CCCTCGTC,-0.134
24,CGTCCTGA,-0.122
25,CTCAAAAC,0.0953

row,Sequence,PBM E-score
1,CAAAACCA,0.311
2,ATAAGTGC,-0.129
3,GAATCTTA,0.00129
4,AAAACCTG,0.0984
5,GATTCACA,-0.204
6,GTCTCAAA,0.0694
7,GTGGCTGA,-0.269
8,GTAGGGAA,-0.112
9,GTCTTACA,-0.0947
10,ACAGCTTC,-0.0237
11,CAAACACC,0.0838
12,ATTCCGGC,-0.0867
13,CAATCTGC,-0.0901
14,CAGCGTCC,0.026
15,GATGAGTA,0.0479
16,CTCTAAGA,0.135
17,GACTCAAA,-0.055
18,AACGCTCA,-0.0354
19,CCACTTAG,-0.04
20,CCTGCCCC,-0.259
21,CTATTATC,0.0149
22,GACGACCA,-0.026
23,AATCAGCA,-0.0933
24,ACAACATA,0.0626
25,ACCAACGC,0.118

row,Sequence,PBM E-score
1,AATTCGCG,0.0543
2,AGGATAAA,0.11
3,AGGAAACA,0.196
4,GTATTCTA,0.139
5,ATTGTTAG,0.161
6,CTGATGGC,-0.0334
7,AATTTGTA,0.121
8,TAGCTCGA,0.0239
9,CCTTCTGC,-0.25
10,ACCTGCGA,0.0264
11,CATCTCGA,-0.0921
12,CCGGCCTC,-0.0295
13,GCCGGTAA,0.161
14,AACTAACT,0.00107
15,ATAGTTCC,-0.00068
16,CAAATTCG,-0.0821
17,GCAGAACC,0.0866
18,TCAAAAGA,0.078
19,CCATCACG,-0.0831
20,GTAGTGCA,0.19
21,ACACGACC,0.276
22,AGACTTGG,-0.23
23,CTGCTCAC,-0.117
24,CTGTCAAC,-0.0249
25,GAACTGTA,0.115

row,Sequence,PBM E-score
1,GGCATCAA,-0.199
2,CAAATAGG,0.0968
3,GGTCTTTA,0.16
4,ATGCGAAC,0.117
5,AATCGAGA,-0.161
6,ATCGTTAG,0.00203
7,AACCTGCT,0.179
8,CCGCGCTC,0.0675
9,CATTTACG,-0.163
10,GTTTGTCA,0.0476
11,ATGCCTAC,-0.292
12,AGAATTAG,-0.184
13,CCTGACTA,0.00387
14,TGAAGCAA,-0.0333
15,ATAATCTC,-0.0139
16,AAAAGCAA,-0.00278
17,ATCCCGAC,-0.0856
18,ATTGGTAG,0.0197
19,GCCGTAGA,-0.103
20,GGTAAGTA,0.0537
21,ACAAGACA,0.161
22,ACCGATAC,0.0986
23,AGGGGCAG,-0.186
24,ATTTCGAG,-0.0457
25,ATACGGAG,-0.139

row,Sequence,PBM E-score
1,CGTAGTAG,0.0278
2,AATAGCAA,0.18
3,CGTAGCGC,-0.276
4,GAATCGCA,-0.119
5,GCTTCTTA,0.0259
6,ATGCGTTA,0.0446
7,GAAGACAC,-0.163
8,CCGATGGA,-0.241
9,CGTTTAAA,0.0751
10,CAGTTTAC,0.0521
11,AGTTTAGC,-0.173
12,AATGCACG,-0.112
13,GACCTCGC,0.0843
14,ATAATCCC,-0.0328
15,AAGTCACG,-0.189
16,ATAACCAA,0.437
17,CAAAATCC,0.0864
18,AGCCACAA,0.153
19,AAAAATCT,0.157
20,AATAGTGG,0.0886
21,TCTAAGCA,-0.0707
22,GGATGTGA,0.0688
23,GCAACCGA,0.0724
24,AGAGTTAA,-0.086
25,CGGTCGGC,-0.122

row,Sequence,PBM E-score
1,AACGAGGA,-0.0212
2,GAACCCGC,0.156
3,GGAATTCC,-0.122
4,CGAAGTTC,-0.112
5,AACTTGCC,-0.165
6,AACCCGTG,0.0714
7,GAACTCGA,-0.0167
8,CACCAATG,0.0461
9,AGAAAAGA,-0.16
10,AGAGTCGG,-0.162
11,TCTACGCA,-0.159
12,GCCGAATA,-0.0383
13,GCACTTAA,0.0398
14,AAACGGAT,0.0565
15,ACCTGACT,0.143
16,ATTGCTCG,-0.229
17,CTTTCAAA,0.18
18,CCGTCTAC,-0.0898
19,CACGCCTC,-0.037
20,CCGAGGCA,-0.187
21,CCATGCGC,-0.243
22,AATTGGAC,0.214
23,AGGACCCA,0.00285
24,ACGCAGTC,-0.22
25,GGCTACGA,-0.023

row,Sequence,PBM E-score
1,CATCATCC,-0.216
2,CCTAGTAA,0.211
3,AATGTACA,0.109
4,AACTATAG,0.049
5,CAGAATCA,0.092
6,GGTGCACC,-0.0818
7,CTCGACCA,-0.0557
8,CTTTCTGC,0.0709
9,GTTCTTAA,0.0134
10,CATCGGTA,-0.0262
11,CTTAATCC,-0.131
12,GCAGTCCC,-0.104
13,GGGGTGAA,0.0494
14,ACGTACAT,0.0468
15,ATTGGTGG,0.0796
16,GTCATAGA,0.0722
17,CCGTGAAG,-0.0542
18,CTAGTTCC,0.022
19,CTCCAAAC,0.0502
